The text below walks through data of the supplement of paper PMC8821664.

The subject of this assay is Beas-2B AQP5-HiBiT reporter cells. Kind of assay: AQP5-HiBiT luminescence relative to vehicle (ratio to vehicle); higher = higher AQP5-HiBiT protein abundance. The note with it: 10 µM; 18 h.

Structures can show the parent of a compound that is named as a salt. Some of the results follow. Single values are uncertain, as repeats are few or missing.
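Further: monoclonal Beas-2B line stably carrying CMV promoter-driven AQP5-HiBiT, 5,000 cells per well in 384-well plates, lytic HiBiT plus LgBiT NanoLuc luminescence, FDA-approved drug library screen.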

Turning to `C=CC[C@@H]1/C=C(\C)C[C@H](C)C[C@H](OC)[C@H]2O[C@@](O)(C(=O)C(=O)N3CCCC[C@H]3C(=O)O[C@H](/C(C)=C/[C@@H]3CC[C@@H](O)[C@H](OC)C3)[C@H](C)[C@@H](O)CC1=O)[C@H](C)C[C@@H]2OC` [Tacrolimus (FK506)], the AQP5-HiBiT luminescence was 0.857.
Under `Cn1c(=O)c2[nH]cnc2n(C)c1=O` [Aminophylline] stands 0.728; under `N=C(N)NC(=O)c1nc(Cl)c(N)nc1N` [Amiloride hydrochloride], 0.796.
Under `CCC(=O)O[C@]1(C(=O)SCF)[C@H](C)C[C@H]2[C@@H]3C[C@H](F)C4=CC(=O)C=C[C@]4(C)[C@@]3(F)[C@@H](O)C[C@@]21C` [Fluticasone propionate] stands 1.03.
Under `CCC[C@H](NC(=O)[C@@H]1[C@H]2CCC[C@H]2CN1C(=O)[C@@H](NC(=O)[C@@H](NC(=O)c1cnccn1)C1CCCCC1)C(C)(C)C)C(=O)C(=O)NC1CC1` [Telaprevir (VX-950)] stands 1.01; under `C[C@]12CCC(=O)C=C1[C@@H]1C[C@@H]1[C@H]1[C@@H]3[C@@H]4C[C@@H]4[C@@]4(CCC(=O)O4)[C@@]3(C)CC[C@@H]12` [Drospirenone], 0.436; under `NC(N)=O`, 0.665.
`O=C(/C=C/c1cccc(S(=O)(=O)Nc2ccccc2)c1)NO` [Belinostat (PXD101)]: the AQP5-HiBiT luminescence turned out to be 2.56.
Regarding `C[C@H]1O[C@@H](O[C@H]2[C@@H](O)C[C@H](O[C@H]3[C@@H](O)C[C@H](O[C@H]4CC[C@@]5(C)[C@H](CC[C@@H]6[C@@H]5CC[C@]5(C)[C@@H](C7=CC(=O)OC7)CC[C@]65O)C4)O[C@@H]3C)O[C@@H]2C)C[C@H](O)[C@@H]1O` [Digitoxin], the AQP5-HiBiT luminescence is 2.16.
Under `Cn1c(=O)cc(N2CCC[C@@H](N)C2)n(Cc2ccccc2C#N)c1=O` [Alogliptin Benzoate] stands 1.01; under `CNC(=O)c1cc(Oc2ccc(NC(=O)Nc3ccc(Cl)c(C(F)(F)F)c3)cc2)ccn1` [Sorafenib], 0.138; under `CN(C/C=C/C#CC(C)(C)C)Cc1cccc2ccccc12` [Terbinafine hydrochloride], 1.23.
Turning to `COc1cc2ncnc(Nc3ccc(F)c(Cl)c3)c2cc1OCCCN1CCOCC1` [Gefitinib (ZD1839)], the AQP5-HiBiT luminescence was determined as 1.
Under `Cc1cccn2c(=O)c(-c3nnn[nH]3)cnc12` [Pemirolast potassium] stands 1.4; under `O=C1CN(/N=C/c2ccc(-c3ccc([N+](=O)[O-])cc3)o2)C(=O)N1` [Dantrolene sodium salt], 0.792; under `CC(CN1c2ccccc2Sc2ccccc21)N(C)C` (centres undefined) [Promethazine], 1.15.
Under `Cc1nnc(SCC2=C(C(=O)O)N3C(=O)[C@@H](NC(=O)Cn4cnnn4)[C@H]3SC2)s1` [Cefazolin sodium salt] stands 1.2.
For `CCc1nn(CCCN2CCN(c3cccc(Cl)c3)CC2)c(=O)n1CCOc1ccccc1` [Nefazodone hydrochloride], the AQP5-HiBiT luminescence is 1.13.
Under `OCCOc1ccc(/C(=C(/CCCl)c2ccccc2)c2ccccc2)cc1` [Ospemifene] stands 0.885.
Under `Cc1ccccc1C(=O)Nc1ccc(C(=O)N2CCCC(O)c3cc(Cl)ccc32)c(C)c1` (centres undefined) [Tolvaptan] stands 0.801.
For the compound `O=c1[nH]c(=O)n([C@H]2C[C@H](O)[C@@H](CO)O2)cc1C(F)(F)F` [Trifluridine], the AQP5-HiBiT luminescence is 0.911.
Under `NC[C@H]1O[C@H](O[C@H]2[C@H](O)[C@@H](O[C@H]3O[C@H](CO)[C@@H](O)[C@H](N)[C@H]3O)[C@H](N)C[C@@H]2N)[C@H](N)C[C@@H]1O` [Tobramycin] stands 1.09.
Under `CN1CCN(CCCN2c3ccccc3Sc3ccc(C(F)(F)F)cc32)CC1` [Trifluoperazine 2hydrochloride] stands 1.96; under `Clc1ccc(C(c2ccccc2Cl)C(Cl)Cl)cc1` (centres undefined) [Mitotan], 1.2; under `CC[C@@]1(O)C(=O)OCc2c1cc1n(c2=O)Cc2cc3c(CN(C)C)c(O)ccc3nc2-1` [Topotecan hydrochloride], 0.723.
Under `Nc1nc(=O)[nH]cc1F` [Fluorocytosine] stands 0.778; under `CN(C)C(=O)C(CCN1CCC(O)(c2ccc(Cl)cc2)CC1)(c1ccccc1)c1ccccc1` [Loperamide hydrochloride], 1.82.
On to `CC(C)NCC(O)COc1cccc2[nH]ccc12` (centres undefined) [Pindolol], for which the AQP5-HiBiT luminescence was determined as 0.693.
Under `CC1=C(/C=C/C(C)=C/C=C/C(C)=C/CO)C(C)(C)CCC1` [Vitamin A] stands 1.05.
Under `COc1ccnc(C[S+]([O-])c2nc3cc(OC(F)F)ccc3[nH]2)c1OC` (centres undefined) [Pantoprazole Sodium Hydrate] stands 0.704; under `CCc1cccc2c3c([nH]c12)C(CC)(CC(=O)O)OCC3` (centres undefined) [Etodolac], 0.657; under `CS(=O)(=O)c1ccc(C(=O)Nc2ccc(Cl)c(-c3ccccn3)c2)c(Cl)c1` [Vismodegib (GDC-0449)], 0.859.
Under `CC1=C(/C=C/C(C)=C/C=C/C(C)=C\C(=O)O)C(C)(C)CCC1` [Isotretinoin] stands 0.785; under `Nc1c(CC(=O)O)cccc1C(=O)c1ccc(Br)cc1` [Bromfenac sodium], 0.743; under `CC(C)C(=O)Oc1ccc(CO)cc1[C@H](CCN(C(C)C)C(C)C)c1ccccc1` [Fesoterodine fumarate], 0.945.
With `C[C@H]1C[C@H]2[C@@H]3CCC4=CC(=O)C=C[C@]4(C)[C@@]3(F)[C@@H](O)C[C@]2(C)[C@@]1(O)C(=O)CO` [Betamethasone], the AQP5-HiBiT luminescence came out at 0.504.
With `Clc1ccc2nsnc2c1NC1=NCCN1` [Tizanidine hydrochloride], the AQP5-HiBiT luminescence was found to be 0.639.
Under `Cc1[nH]cnc1CN1CCc2c(c3ccccc3n2C)C1=O` [Alosetron hydrochloride] stands 1.02; under `CN1CCN(CCCN2c3ccccc3Sc3ccc(Cl)cc32)CC1` [Prochlorperazine], 1.39; under `NC[C@H](O)c1ccc(O)c(O)c1` [Noradrenaline bitartrate monohydrate], 0.642.
Under `NCCCC[C@H](N[C@@H](CCc1ccccc1)C(=O)O)C(=O)N1CCC[C@H]1C(=O)O` [Lisinopril dihydrate] stands 0.697; under `O=C1[C@@H]2[C@H]3CC[C@H](C3)[C@@H]2C(=O)N1C[C@@H]1CCCC[C@H]1CN1CCN(c2nsc3ccccc23)CC1` [Lurasidone hydrochloride], 1; under `C[C@H]1O[C@@H](O[C@H]2[C@@H](O)C[C@H](O[C@H]3[C@@H](O)C[C@H](O[C@H]4CC[C@@]5(C)[C@H](CC[C@@H]6[C@@H]5C[C@@H](O)[C@]5(C)[C@@H](C7=CC(=O)OC7)CC[C@]65O)C4)O[C@@H]3C)O[C@@H]2C)C[C@H](O)[C@@H]1O` [Digoxin], 2.89.
Under `CCC(=O)Oc1ccc2c(c1)CCC1C2CCC2(C)C(OC(=O)CC)CCC12` (stereo not drawn) [17-Beta-Estradiol-3,17-Dipropionate] stands 0.723; under `N=C1CCCN1Cc1[nH]c(=O)[nH]c(=O)c1Cl` [Tipiracil hydrochloride], 1.9; under `CCC1(c2ccccc2)C(=O)NCNC1=O` [Primidone], 1.13.
Consider `CC(=O)Oc1ccccc1C(=O)O` [Acetylsalicylic acid], for which the AQP5-HiBiT luminescence was found to be 0.97.
For `COC(=O)N[C@H](C(=O)N[C@@H](Cc1ccccc1)[C@@H](O)CN(Cc1ccc(-c2ccccn2)cc1)NC(=O)[C@@H](NC(=O)OC)C(C)(C)C)C(C)(C)C` [Atazanavir], the AQP5-HiBiT luminescence amounted to 0.826.
Under `Cc1ccc(O)c([C@H](CCN(C(C)C)C(C)C)c2ccccc2)c1` [Tolterodine tartrate] stands 1.22.
Under `CCCCN(CCCC)CC(O)c1cc(Cl)cc2c1-c1ccc(Cl)cc1/C2=C/c1ccc(Cl)cc1` (centres undefined) [Lumefantrine] stands 0.873.
Under `Nc1nc2c(ncn2COC(CO)CO)c(=O)[nH]1` [Ganciclovir] stands 0.999; under `N=C(N)N` [Guanidine hydrochloride], 0.806.
For the compound `CCCCC(CC)COC(=O)C(C#N)=C(c1ccccc1)c1ccccc1` (centres undefined) [Octocrilene], the AQP5-HiBiT luminescence amounted to 0.7.
Under `CN(C)CCOC(C)(c1ccccc1)c1ccccn1` (centres undefined) [Doxylamine succinate] stands 0.722.
`Nc1nc(=O)c2nc(CNc3ccc(C(=O)N[C@@H](CCC(=O)O)C(=O)O)cc3)cnc2[nH]1` [Folic acid]: the AQP5-HiBiT luminescence amounted to 0.726.
Under `CCCCOc1cc(C(=O)NCCN(CC)CC)c2ccccc2n1` [Dibucaine] stands 0.788; under `O=C1Cc2cc(CCN3CCN(c4nsc5ccccc45)CC3)c(Cl)cc2N1` [Ziprasidone hydrochloride], 1.23.
Under `CC(C)NCC(O)COc1ccc(CCOCC2CC2)cc1` (centres undefined) [Betaxolol hydrochloride] stands 1.34; under `CCC(=O)OCC(=O)[C@@]1(OC(=O)CC)[C@@H](C)C[C@H]2[C@@H]3CCC4=CC(=O)C=C[C@]4(C)[C@@]3(Cl)[C@@H](O)C[C@@]21C` [Beclomethasone dipropionate], 0.579; under `O=C(OOC(=O)c1ccccc1)c1ccccc1` [Benzoyl peroxide], 0.587.
Under `CCOC(=O)C1=C[C@@H](OC(CC)CC)[C@H](NC(C)=O)[C@@H](N)C1` [Oseltamivir phosphate] stands 0.925; under `CCOc1cc(CC(=O)N[C@@H](CC(C)C)c2ccccc2N2CCCCC2)ccc1C(=O)O` [Repaglinide], 0.768.
Take `CN[C@H]1C(=O)N[C@@H]2Cc3ccc(cc3)Oc3cc4cc(c3O[C@@H]3O[C@H](C(=O)O)[C@@H](O)[C@H](O)[C@H]3NC(=O)CCCCCCCCC(C)C)Oc3ccc(cc3Cl)[C@@H](O)[C@@H]3NC(=O)[C@H](NC(=O)[C@@H]4NC(=O)[C@@H](NC2=O)c2cc(cc(O)c2Cl)Oc2cc1ccc2O)c1ccc(O)c(c1)-c1c(O[C@H]2O[C@H](CO)[C@@H](O)[C@H](O)[C@@H]2O)cc(O)cc1[C@@H](C(=O)NCCCN(C)C)NC3=O` [Dalbavancin hydrochloride]: the AQP5-HiBiT luminescence worked out at 0.916.
Under `CC(C)C[C@H](NC(=O)[C@H](Cc1ccccc1)NC(=O)c1cnccn1)B(O)O` [Bortezomib (PS-341)] stands 98.7.
